This is one part of the list. At the low end of the ranking, values are background and their order means little. The protein was read in a cell extract, so binding may be indirect.

This experiment deals with T1, HNF4alpha8 (COS-7 nuclear extract) (UniProt P41235-5).
T1 sequence: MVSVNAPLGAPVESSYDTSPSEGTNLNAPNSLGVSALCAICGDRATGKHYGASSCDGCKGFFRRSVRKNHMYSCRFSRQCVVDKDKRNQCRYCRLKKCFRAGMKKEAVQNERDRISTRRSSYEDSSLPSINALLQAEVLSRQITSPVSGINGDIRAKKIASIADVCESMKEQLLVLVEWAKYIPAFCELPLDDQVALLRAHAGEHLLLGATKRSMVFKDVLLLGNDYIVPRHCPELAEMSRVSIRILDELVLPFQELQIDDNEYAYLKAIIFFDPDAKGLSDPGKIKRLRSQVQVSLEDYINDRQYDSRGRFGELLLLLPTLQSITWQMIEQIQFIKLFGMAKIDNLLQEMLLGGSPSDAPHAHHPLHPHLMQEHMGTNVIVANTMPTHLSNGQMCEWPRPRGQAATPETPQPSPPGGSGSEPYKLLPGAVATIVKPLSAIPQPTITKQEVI
Briefly: protein-binding microarray. As to conditions: COS-7 nuclear extract on double-stranded Agilent 4x180k PBM; binding buffer, salt, pH and temperature not given; high values mean tight binding; double strand, one strand shown; sequences stand for … in …GCCTAGGGAGATTAGAGTATCGGTCGA
For AGGTCCAACTGACATCTGGAAATGTTTGTA, the binding signal (log2 normalized intensity) stood at 1.41.

For TCCCCTAGGTGATTAGAAGATAGCTTTAAA, the binding signal (log2 normalized intensity) was -1.32.

Consider TAAGTAGCCAAGATTACAGCCACATGCTAA, for which the binding signal (log2 normalized intensity) is -1.35. ATATTCCTGGAATGACAAGAATTGGAACCC: the binding signal (log2 normalized intensity) is 2.03. AGAGACTATGTGGTTTTGTAAATATAGGAT: the binding signal (log2 normalized intensity) amounted to 0.393. As to GAGAGAGCAGGTTGAGTATCTACCACATAC, the binding signal (log2 normalized intensity) is -1.25.

Take AGGTCTTGGTTGTTCTGTTTAACAGAGATT: the binding signal (log2 normalized intensity) was 1.09. As for ATAAAAAGATAATGCTGGACATGACTGCAC, the figure is -1.4. Regarding TTCTGGCCAGGCAGAGCAGGTTCTCAGGCC, the binding signal (log2 normalized intensity) was -1.36. With CCAGTTGGTTGCTAAGAGACAGCTCCACAG, the binding signal (log2 normalized intensity) was -1.33. As for ATCAGTCCAGGAGGGTCACAAGTCCCTGTC, the figure is 1.43; as for GAACTAATTTGTCTTTTCTCCCCCGATAAG, 4.51. For the sequence CACGTGAGAGGGTCGTGATCGATTGAGCAA, the binding signal (log2 normalized intensity) is -0.974.

Take GACCTGTCAAGCAATGATCTTCATGAACTT: the binding signal (log2 normalized intensity) worked out at 1.75. For TTTGCTGTGGTAGGCTGTCCTGTGCAATGG, the binding signal (log2 normalized intensity) was 1.1. Take TGGATACCCTTCCCCCCAAGGCTTCCAATC: the binding signal (log2 normalized intensity) turned out to be 4.14.

For TTTATCTCCCACATGCTGTCTAGGCCAGAG, the binding signal (log2 normalized intensity) was -1.09.

For the sequence CACCCCCTATCTTGTGTAATAACGAGACCT, the binding signal (log2 normalized intensity) was determined as 1.38. As to GCTGACTAACAAGCTGCCAAACTCTCACTC, the binding signal (log2 normalized intensity) was -1.24. As for TGCCCTAAGCCACAGACAAATATTTGCTGT, the figure is -0.484; as for AAACAAATACCATCATCTCAGGGAGTGCAA, -1.07; as for TTAACACAAGTTATTACCGTGATGTTCGTT, 1.14. With ACCCCACACACCAAAACTCTCTCTCTGTGT, the binding signal (log2 normalized intensity) is 0.344. Regarding CTGAGCCCTAAGAAATCTCCAAGTCAAACA, the binding signal (log2 normalized intensity) was -1.41. As for TCTGATTAGGTGGATTCGCCCAGCATAGCA, the figure is -1.34. CCCCAGCCTGTTTCCCTAGCTTATATCCCC: the binding signal (log2 normalized intensity) was 3.01. As to GAGCCTTCAAAGGAAAGCAGGTGTTCACCT, the binding signal (log2 normalized intensity) was -0.293. For CCATGCAGCCAGGGTCAGGAGAAGCAGAAC, the binding signal (log2 normalized intensity) was -1.34. Take TTAAAAAGCTGCAATGGCTTCACAATTCCT: the binding signal (log2 normalized intensity) was -1.24. As for ACCCATCATGAGTAGGTTTACTAAAGGAAG, the figure is 0.304; as for CATTCTACCCCTGTGGTTGACCTTTAGTCT, 8.33.

Take TAACAGGATTTTTGCTGAAGACAGGCCAGG: the binding signal (log2 normalized intensity) was -1.27. As for GACAAGCAGTGACCAAGGGTCAGTTTGAAA, the binding signal (log2 normalized intensity) worked out at 3.42. On to ATTACATATTAACCTTTGCCCCAGCTGTCA, for which the binding signal (log2 normalized intensity) came to 6.73. On to CAGCTGAACCATATTCTTTACATTTATTAG, for which the binding signal (log2 normalized intensity) came to 0.675. As for GGTCACATAGCCAGTAAATCATGGATCTGT, the binding signal (log2 normalized intensity) was -0.373. Regarding AACATCAAATACCTCCAAGAGGTTTTAGGC, the binding signal (log2 normalized intensity) is -1.34. On to CTTCAAAGGTCGTGTGCTTATCACATCTAT, for which the binding signal (log2 normalized intensity) was found to be 1.33. With TCAGTCTGGTTGAGGCAAGCAAAAGCCAAG, the binding signal (log2 normalized intensity) is -1.29.

As to CCCCTGCCACTTTCACAAATCATTACTATC, the binding signal (log2 normalized intensity) is -0.768. As to GTATCCCAGGGACTTACTCAACTAGCTCCA, the binding signal (log2 normalized intensity) is -1.4. Take TTGGAGATCTGAACTCAAGCTCTTAAAGAA: the binding signal (log2 normalized intensity) was -1.26. Turning to TCAGAAGCTGGGAGACCACTGGTGTAAGCT, the binding signal (log2 normalized intensity) was -1.31.

Turning to TTGGCTTGGTTCCACATCAGAGAGTTCAAA, the binding signal (log2 normalized intensity) amounted to 1.89.

With GGTCACAGAAAGTGACGTGCAGAGGAGCAA, the binding signal (log2 normalized intensity) was -0.619. As for GTGGGAGAGCAAGGGTCAAGGGTCATTTGT, the figure is 7.65. As for CCTAAGGGCACCCTTCCTGCTTCCAGGCTT, the figure is -1.25; as for GAGGAACTCCAGAACCAAAGTCCTAGAGTC, -1.26. For the sequence TTACCTTGACCAAAGTACAGTAATTTCACT, the binding signal (log2 normalized intensity) was determined as 1.83. Regarding GGGCAGGGACTTTGCCCTTTTTAATGTTTC, the binding signal (log2 normalized intensity) is 5.8. Turning to CCTGAAGCCTTCCTTAATCCTTCAGTATGC, the binding signal (log2 normalized intensity) was found to be 0.75. Consider CTTAAATAATGCATACGCTAGCTTTCTGGT, for which the binding signal (log2 normalized intensity) is -0.943. Take GCCATTTCTGAGCAAATATTTGGGGTATGT: the binding signal (log2 normalized intensity) was 1.24. As for CTCATGAGGGGCCTGTCAGGCCCAGAAACA, the figure is -1.26; as for ACCTCCTGGGCCCAAGTGCTCCTCCCCATC, 3.58. As for ATAAGGGTGGCCATCCATCCTGGCGACAGC, the figure is -1.29; as for AAGCTGATAAGCCAAGAATGTACTCTCCCC, 2.71; as for CACTGATAAAACTGGAATAAAGCAGTCCCT, -1.34. Consider CCTTTTATTCAAACAGAGGACAGTTGTGTT, for which the binding signal (log2 normalized intensity) turned out to be 1.73. As for GAGGGAGCCAGGTTATGCAGAGCTTAGTTT, the figure is -1.27; as for TAAGTAAACTGTTCAAGACTTTCAGCCAAC, -1.33; as for GTCCAGAGTAGGCTTGCAAGACTGCATTCC, -1.2.

For CTTCCAGTCCACAGTCCAGTGACTATCTGC, the binding signal (log2 normalized intensity) was found to be 1.02. For the sequence TATGGAGAGGAAAGATGGGGATATAATCAT, the binding signal (log2 normalized intensity) is -1.22. As for CTTTGTTTGGAAAAGATTAAGTTATCCATG, the figure is 0.3; as for AGCAAGACTGCAAAATAGACAAACAGCAAT, -1.23. As for TGTCTTCTGACCTTTGGCAATATCTCCCAG, the binding signal (log2 normalized intensity) amounted to 3.96. As for ATGGTTTGACCCTGCGATAAGTAGATACCA, the figure is 1.42; as for GGAAGGGCTGGAGACGCAGGAGATGAAAAA, -1.24. With GACATAGTTTTTGCCCTTAAGCAGCATGTA, the binding signal (log2 normalized intensity) stood at 1.19. As for GCCCCAGTCCCCCGGACCAGGCCGGGTCAC, the figure is 4.3; as for ATCTCTTTGCAATGTAAACATCAAGGAAGA, -0.986.

The values above are taken from PMC10726135.
